# Experimental data as given in paper PMC12136788.
# The other results are listed elsewhere or left out.
# B1: chr2:100011259:100011260:+_ENSG00000158417_ENST00000289371|hu_hu|FALSE|FALSE (ssRNA)
# RNA: GGGAGUUCUACAGUCCGACGAUCGUAGUCUUGUCUAUAUUUUGUAAAGGCAUCAAAUAAAUGAUAAAUAAUUUCUGCACUAAAAAUUCUAACUCCUAAACUAUCAGCCAUUUCUUGUGCAUCUCGUUCAAUUCUCACAUCGAACAACAGAGGAUUGAGCAUCA
# B2: 52694965_52695325_878_CDS_ENSMUSG00000003865_ENSMUST00000003964|mouse|control|control (ssRNA)
# RNA: GGGAGUUCUACAGUCCGACGAUCGCAGUACCGGUGAUAGAUCUGCCUCUCUCCUGCUUCCUUGUCUACAUUGAAAUUCUCCAGGUUGUUGUAGAAGUCCACAGCGCCAGCACACAGGUAGCGCCCCAGCAGCGUGGCAUGAGUCAACAGAGGAUUGAGCAUCA
# B3: chr14:89307221:89307222:+_ENSG00000165533_ENST00000346301|hu_mus|hu_hu_hu_mus_False|18_68 (ssRNA)
# RNA: GGGAGUUCUACAGUCCGACGAUCUCCUGUUUGGUUAGUGCCAGGGAGCUUCAAAGAUGUGCCAGGGCGUGGAACUUGAGCAAUAGCAUUUUCAUCCAGGAUCAUUUCAGCAAUUCCUUCCUGAUCUACAUCAAUUUCAUCUAUCAACAGAGGAUUGAGCAUCA
# B4: chr3:148802587:148802588:-_ENSG00000071794_ENST00000310053|hu_mus|hu_hu_hu_mus_False|48_68 (ssRNA)
# RNA: GGGAGUUCUACAGUCCGACGAUCUCCAACAACUUGUCCUCUCAUAGUUCCAAAUAAAACCAAAUCUACUUCUUCAUCACUCGUUAGAAAGUCAUCUGGAGGAAUAAUGUCUUGGAAUUCAAAAUGUGGCAAGAAAGUUGAGUACAACAGAGGAUUGAGCAUCA
# B5: chr2:202488911:202488912:-_ENSG00000155755_ENST00000286196|hu_mus|hu_hu_hu_mus_False|78_108 (ssRNA)
# RNA: GGGAGUUCUACAGUCCGACGAUCAUUUAACAUUUUUUCAUAAUCUCCAGUAGCAUUCAGUAUUAUAGUAACAAAAGCUCAAUUGUAAAUACAUGUAUCUUAUAAAAAUACACUUAAAAACACGAGUGGGGAGCGCAGGCGCCACAACAGAGGAUUGAGCAUCA
# B6: chr7:40134317:40134318:+_ENSG00000065883_ENST00000340829|hu_mus|motif|central (ssRNA)
# RNA: GGGAGUUCUACAGUCCGACGAUCGGAAGGGUCAUUGCUGUUUGUGAGGACUGUGAUAGGACCAUGGCUAUAUUCAAAUCGGUGGUCCUUGUCUCCACUAAACAACAUGGGACCAGCAUUGAGGUAAAUGUCUCCAUAUCCAGCCAACAGAGGAUUGAGCAUCA
# B7: chr14:58718896:58718897:+_ENSG00000100567_ENST00000216455|hu_hu|motif|central (ssRNA)
# RNA: GGGAGUUCUACAGUCCGACGAUCCCGAUCAACAUUAAAAAGUCUUUUGUUGGAACCUUCUUCAUAAAGUUUAGAAAGGACGGAUUUUUCUACCCCAAAGACAACACCAUCUUUGCAUCUGAUUCCAAUAGCUGUACUACUAUUCAACAGAGGAUUGAGCAUCA
# B8: chr1:205589228:205589229:-_ENSG00000158711_ENST00000357992|hu_mus|FALSE|FALSE (ssRNA)
# RNA: GGGAGUUCUACAGUCCGACGAUCGUGACCACAAGGGCGGGUGUCAGUUCUAACCCUUUGGGCUUCUUAGAUCUUGAUGAGUUAUUUGUUUUGUCCUUUUCUGGCAAAGCUGAAUCCUCAUUUUUAGGCUCCAGUGAUAAGUUCCAACAGAGGAUUGAGCAUCA
# B9: 98684097_98684217_956_CDS_ENSMUSG00000078676_ENSMUST00000169695|mouse|control|control (ssRNA)
# RNA: GGGAGUUCUACAGUCCGACGAUCGCGGCCAUCCUUGAAGCCCCCAGAUCGAGAGUAAUUCCUGGAUGCAGACAUGCGGCCAGUACCUGCCGUGUUCCUGUUAAUAAAUGUCCUAGGUGGUAGAUUGCCCCCAGGACCCUGGUGCAACAGAGGAUUGAGCAUCA
# B10: chr8:22470488:22470489:+_ENSG00000158941_ENST00000522599|hu_hu|motif|central (ssRNA)
# RNA: GGGAGUUCUACAGUCCGACGAUCUGACCCAUCACCAACAGUAAGAAACCACAUUGUUAUAUGUAUUCAAUACAAACUGAACGGAAAGAACUGGAAACAAUCGAAAUCCCUCACAUUCAAUAAAUGGAAAAAGAAUCCAUGCUACAACAGAGGAUUGAGCAUCA
# B11: chr12:109526192:109526193:-_ENSG00000189046_ENST00000429722|hu_mus|FALSE|FALSE (ssRNA)
# RNA: GGGAGUUCUACAGUCCGACGAUCGUGUGCCAGCUGCAGCCUGACCACCUCCACUGUCCUCCGGGGCCUCUUCCCUCGAGAGUCUUUGUGCCGGAAAAUGAAGUCUCUGCAAGCGCCAAAGGAGACAGACGCGAUGGGGCUCCCCAACAGAGGAUUGAGCAUCA
# B12: chr10:71917581:71917582:-_ENSG00000079332_ENST00000373241|hu_hu|FALSE|FALSE (ssRNA)
# RNA: GGGAGUUCUACAGUCCGACGAUCCUCAACUUUGGAUUCCACGAGGCGAGAAUGAUCUGCACAGUCCACCAGAAAGACAAUCCCAUUAAUUGCUGGGAGAUAAUUUUUCCAAACGCGACGUGCUUGCUCGUGCCCACCAAGAUCCAACAGAGGAUUGAGCAUCA
# B13: chr3:151873496:151873497:+_ENSMUSG00000028034_ENSMUST00000166984|mus_mus|FALSE|FALSE (ssRNA)
# RNA: GGGAGUUCUACAGUCCGACGAUCCGCUACAGCACACGCUGCCGUUUCCUCGCGGAGGGAGGCGCCGCUCUCGGUUAACUGCUAAGAAAGGAAGAAGAUGGCGGCCGUCGAGGCUCUAUCACAUUCUUGCACGACCAUCGUGCCCAACAGAGGAUUGAGCAUCA
# B14: chr15:79189513:79189514:+_ENSG00000185787_ENST00000426013|hu_mus|motif|central (ssRNA)
# RNA: GGGAGUUCUACAGUCCGACGAUCCUCCUUUUAUUUUCUCUGUUUAAAAUCAAAGAGGAAACAAACAACUCUGUUAUACACGGACGGUCUUCAAAGUACAUCAUUUGUACAAGAGAAGGACUAAGAACCAAACUGUUUACAGAGCAACAGAGGAUUGAGCAUCA
# B15: chr8:113366663:113366664:-_ENSMUSG00000033732_ENSMUST00000042012|mus_hu|FALSE|FALSE (ssRNA)
# RNA: GGGAGUUCUACAGUCCGACGAUCCAAUUUCUGUUUCUCAAUGGCACUAAUCAUAACGGCUCGCCCUUUGGGAUCCACAGCUAAGAACUGGCCAGGAACGAUGCGACGGCAUCCACUCUUGCCAAAGGUUUCUUGGUGAAUCUUCAACAGAGGAUUGAGCAUCA
# B16: 93744982_93746653_487_CDS_ENSMUSG00000054079_ENSMUST00000066888|mouse|control|control (ssRNA)
# RNA: GGGAGUUCUACAGUCCGACGAUCUUCCUCAUCUUCAUCAUCUUCAUCCACCCAAACUGGCUGCUUCUUCUUCUGAGAAAAAAUGUCUUUUGCUUCAUUUUCCACUUCCGAUUCAUCUGAGCUUCCAUGUAGCUGACCCCGCGACAACAGAGGAUUGAGCAUCA
# B17: 54187742_54188414_594_3pUTR_ENSMUSG00000021474_ENSMUST00000021930|mouse|control|control (ssRNA)
# RNA: GGGAGUUCUACAGUCCGACGAUCUACAGCAGCGAAGGGAACAAAACGUCCUAUCAGUGGGGAGACACGCUUGGUUAAGGCAUUGAGUCCUAGGGCCGUUGCCACAGCGCCAGUGGUUGCAGAAACAUAAGCCGUUCCCAGCUCCAACAGAGGAUUGAGCAUCA
# B18: chr16:2814526:2814527:+_ENSG00000167978_ENST00000301740|hu_mus|motif|central (ssRNA)
# RNA: GGGAGUUCUACAGUCCGACGAUCAACCUCAGGAGAAAAGCCAGUAUUUACUUCUGAAACAGGGCCUGAGUUUUUAAACUCGGAAGAUGACUCAAAGCUAUUCUCCCUUGGGGGAGAAUGAGAUAGUUCUUUAUGCUCUGGAGACAACAGAGGAUUGAGCAUCA
# B19: chr3:10015032:10015033:+_ENSMUSG00000027533_ENSMUST00000029046|mus_mus|mus_mus_mus_hu_True|1_98 (ssRNA)
# RNA: GGGAGUUCUACAGUCCGACGAUCGUUUUUACCAUCACACGUAAUGAUACAAUCUGGCUUGGCCAUUGCGCCCAUUUUUCGCAAAGCUAUUCCCACUCCUAGCUCCUUCAUGUAUUCAUCAAAGCCUUUGCUGUCCAUCAGGCGCAACAGAGGAUUGAGCAUCA
# B20: 65274669_65274789_651_3pUTR_ENSMUSG00000051675_ENSMUST00000050850|mouse|control|control (ssRNA)
# RNA: GGGAGUUCUACAGUCCGACGAUCUUAUACCUUGCCUGAAGAUCCCUGGAGACGCCCUCCAAGGCUGCCUUCCUCCUCUGCAGCUCUCCAGUAAGUUCCCUUAGACGAGUCAACUUCUCCCCGAAGUCCCUCCGCCGCUCCUCACAACAGAGGAUUGAGCAUCA
# B21: chr11:72491332:72491333:+_ENSMUSG00000020794_ENSMUST00000021148|perfect_dup|FALSE|FALSE (ssRNA)
# RNA: GGGAGUUCUACAGUCCGACGAUCAGCAUCAACAUUAGCAGGUGAGUCUCCAUUAGGGUCUGCCAGCAUAGAAAUGACACUAAUCAUGAUGGUUUCCACAGUGUGGAUAGGGAGCCAGCGUUCCUCUGGCUUUUCAUAACCAUACAACAGAGGAUUGAGCAUCA
# B22: chr8:117878989:117878990:-_ENSG00000164754_ENST00000297338|hu_hu|hu_hu_hu_mus_True|58_58 (ssRNA)
# RNA: GGGAGUUCUACAGUCCGACGAUCCCAGAGGCCCUCGUUUACUGAGGACAAAAUGUGCGUAGAACAUUUUUCUUAUUGGCUAUGAAAUAAGAAGAAACCUGGAUCUCGGCGGGGAGCCGGGAGGGGUGGGUGGCCCGGGGAGGGCAACAGAGGAUUGAGCAUCA
# Biological target: T1, UNK ZnF1-3 (human, UniProt Q9C0B0 31-174)
# T1 sequence: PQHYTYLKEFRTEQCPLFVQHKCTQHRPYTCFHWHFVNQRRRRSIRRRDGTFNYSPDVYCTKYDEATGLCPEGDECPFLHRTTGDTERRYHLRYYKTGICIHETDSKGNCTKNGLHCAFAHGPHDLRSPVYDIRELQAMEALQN
# Assay: nsRBNS (natural sequence RNA bind-n-seq); RBNS binding buffer (assumed for nsRBNS): 25 mM Tris pH 7.5, 150 mM KCl, 3 mM MgCl2, 0.01% Triton X-100, 500 ug/ml BSA, 20 U/ml SUPERase-In, 4 C; UNK is unkempt and MSI1 is Musashi-1; names of the RNAs are library labels; protein concentration not given here; high values mean tight binding
row,Binder,binding signal [enrichment R]
1,B1,1.46
2,B2,0.937
3,B3,1.02
4,B4,1.16
5,B5,1.06
6,B6,0.918
7,B7,1.09
8,B8,0.577
9,B9,0.933
10,B10,1.16
11,B11,1.09
12,B12,1.68
13,B13,0.928
14,B14,1.33
15,B15,0.828
16,B16,0.689
17,B17,1.04
18,B18,1.34
19,B19,0.768
20,B20,0.944
21,B21,1.17
22,B22,1.56
